# Experimental data taken from PubChem BioAssay (Tox21).
# The shares of active, inactive and inconclusive entries below differ from those in the screen. For some of these results: Potencies of inconclusive entries are doubtful fits and often do not repeat. The source made the active and inactive calls. Unless noted, the call rests on the fitted dose curve; in most records, active means well fitted curve in the direction sought with a large enough effect in the repeat runs; inconclusive means weak or mixed curves; inactive means no such curve, though single readings can be large; an effect the other way counts as inactive or inconclusive.
# Columns and labels:
# [1] = qHTS assay for identifying genotoxic compounds that show differential cytotoxicity against isogenic chicken DT40 cell lines with known DNA damage response pathways - Rev3 mutant cell line (AID 743014); details: chicken DT40 Rev3-/- viability, CellTiter-Glo, 40 h; activity, negative = cytotoxicity: at 68.4 µM (top of the series) unless noted; further: nearly all actives have a fitted effect of over 55% in size; further: potency means the concentration at half of the fitted maximal effect
# [2] = qHTS assay to identify small molecule antagonists of the thyroid receptor (TR) signaling pathway - cell viability counter screen (AID 743064); details: GH3.TRE-Luc viability, CellTiter-Fluor, 24 h; activity change, negative = cytotoxic: at 70.3 µM (top of the series) unless noted; further: nearly all actives have a fitted effect of over 50% in size; further: potency means the concentration at half of the fitted maximal effect
# Method in brief: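 CellTiter-Fluor readout, 30 min at 37 °C/5% CO2, following 23.5 h incubation of GH3.TRE-Luc cells with test compound and 1 nM T3 (final).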
# [3] = target: Peroxisome proliferator-activated receptor gamma (Homo sapiens) (UniProt P37231); assay: qHTS assay to identify small molecule antagonists of the peroxisome proliferator-activated receptor gamma (PPARg) signaling pathway (AID 743191; calls by dose curve; further: on the % scale 0 is the no-effect control and ±100 the full control effect; nearly all actives have a fitted effect of over 30% in size); details: HEK293H PPARg-UAS-bla, beta-lactamase ratio, antagonist, 17 h; ratio activity, negative = inhibition: at 62.6 µM (top of the series) unless noted
# Method in brief: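 Beta-lactamase reporter under UAS control in HEK293H PPARg-bla cells; compound treatment 17 h at 37C. Read-out: fluorescence intensity after 1 h room-temperature incubation with LiveBLAzer B/G FRET substrate.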
# [4] = qHTS assay to identify small molecule agonists of H2AX - cell viability counter screen (AID 1224847; calls by dose curve; further: nearly all actives have a fitted effect of over 30% in size; further: potency means the concentration at half of the fitted maximal effect)
# Method in brief: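 Compounds tested at 15 concentrations were incubated 3 hr at 37C with wild-type CHO-K1 cells; cellular ATP-based luminescence (CellTiter-Glo) indicated viability.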
# [5] = qHTS assay to identify small molecule antagonists of the sonic hedgehog signaling (Shh) pathway (AID 1259369; calls by dose curve; further: nearly all actives have a fitted effect of over 45% in size; further: potency means the concentration at half of the fitted maximal effect)
# Method in brief: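 Read-out is luminescence from a firefly luciferase gene controlled by the Gli1 response element, in 3T3Gli1-Luc cells pre-incubated 4hr then exposed to compounds and conditioned medium for 24hr.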
# [6] = target: Cytochrome P450 1A2 (Homo sapiens) (UniProt P05177); assay: Cytochrome P450 Family 1 Subfamily A Member 2 (CYP1A2) small molecule antagonists: luciferase reporter qHTS assay (AID 1671199); further: nearly all actives have a fitted effect of over 50% in size; further: potency means the concentration at half of the fitted maximal effect
# Method in brief: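 Room-temperature CYP1A2 reaction with proluciferin substrate: compounds added from DMSO, 10 min preincubation, NADPH regeneration for 1 h. Luciferin detection reagent then added; luminescence recorded as RLU.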
# [7] = qHTS assay for small molecule agonists of the p53 signaling pathway (AID 651631; calls by dose curve; further: on the % scale 0 is the no-effect control and ±100 the full control effect; nearly all actives have a fitted effect of over 15% in size); details: HCT-116 p53RE-bla reporter, beta-lactamase FRET ratio, 16 h; activation: at 73.3 µM (top of the series) unless noted
# Method in brief: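 Beta-lactamase reporter activity under p53 response elements was quantified in HCT-116 cells by FRET fluorescence, following 16 h incubation with test compounds at 37 °C and 2 h substrate development at room temperature.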
# [8] = qHTS assay for small molecule agonists of the antioxidant response element (ARE) signaling pathway (AID 743202; active means well fitted activation curve with a large enough effect in the signal ratio in the repeat runs, not every such curve was filed as active; inconclusive means weak or mixed curves, or effect the other way; inactive means no such curve, though single readings can be large or run the other way; the % refers to the signal ratio; further: on the % scale 0 is the no-effect control and ±100 the full control effect); details: HepG2 ARE-bla reporter, beta-lactamase FRET, 16 h; activation: at 73.3 µM (top of the series) unless noted
# Method in brief: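 After 16 hours of compound treatment at 37 C, HepG2 cells with a stably integrated ARE-driven beta-lactamase reporter were loaded 2 hours at room temperature with LiveBLAzer B/G FRET substrate and fluorescence intensity measured.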
# [9] = target: Vitamin D3 receptor (Homo sapiens) (UniProt P11473); assay: qHTS assay to identify small molecule antagonists of the vitamin D receptor (VDR) signaling pathway (AID 743223; active means well fitted inhibition curve with a large enough effect in the signal ratio in the repeat runs, not every such curve was filed as active; inconclusive means weak or mixed curves, or effect the other way; inactive means no such curve, though single readings can be large or run the other way; the % refers to the signal ratio; further: on the % scale 0 is the no-effect control and ±100 the full control effect); details: VDR-UAS-bla HEK293T, beta-lactamase FRET ratio, 16 h
# Method in brief: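 Inhibition of agonist-driven VDR signalling is scored in VDR-bla cells: 3 nM final 1alpha,25-dihydroxyvitamin D3 plus compound, 16 h at 37C, then beta-lactamase detection by FRET substrate fluorescence after 2 h.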
# [10] = target: Estrogen receptor beta (Homo sapiens) (UniProt Q92731); assay: qHTS assay to identify small molecule antagonists of the estrogen receptor beta (ER-beta) signaling pathway (AID 1259378; active means well fitted inhibition curve with a large enough effect in the signal ratio in the repeat runs, not every such curve was filed as active; inconclusive means weak or mixed curves, or effect the other way; inactive means no such curve, though single readings can be large or run the other way; the % refers to the signal ratio; further: on the % scale 0 is the no-effect control and ±100 the full control effect); details: ER-beta-UAS-bla HEK293T, beta-lactamase FRET ratio, 16 h; activity, negative = inhibition: at 92.4 µM (top of the series) unless noted
# Method in brief: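 Antagonist mode: compounds added to beta-lactamase reporter HEK293T ER-beta-UAS cells stimulated with E2 (1nM final), 16 hr at 37C. LiveBLAzer B/G FRET substrate, 2 hours room temperature, fluorescence read-out.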
# [11] = target: Progesterone receptor (Homo sapiens) (UniProt P06401); assay: qHTS assay to identify small molecule antagonists of the progesterone receptor (PR) signaling pathway (AID 1346795; active means well fitted inhibition curve with a large enough effect in the signal ratio in the repeat runs, not every such curve was filed as active; inconclusive means weak or mixed curves; the % refers to the signal ratio; further: on the % scale 0 is the no-effect control and ±100 the full control effect); details: PR-UAS-bla HEK293T, beta-lactamase FRET ratio, 16 h; activity change, negative = inhibition: at 92.4 µM (top of the series) unless noted
# Method in brief: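 Stimulus R5020 at 1 nM final; cells HEK293T PR-UAS-bla; medium with 2% charcoal-stripped FBS; compound exposure 16 hr at 37C, 5% CO2; detection by FRET beta-lactamase substrate, 2 hr, room temperature.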
# [12] = target: Cytochrome P450 2C9 (Homo sapiens) (UniProt P11712); assay: Cytochrome P450 Family 2 Subfamily C Member 9 (CYP2C9) small molecule antagonists: luciferase reporter qHTS assay (AID 1671198); further: nearly all actives have a fitted effect of over 50% in size; further: potency means the concentration at half of the fitted maximal effect
# Method in brief: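 Enzyme-substrate mix preincubated with compound 10 min at room temperature; reaction started with NADPH regeneration solution, 1 h 37C. Luminescent luciferin product read after 20 min detection reagent.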
# [13] = target: Cytochrome P450 2D6 (Homo sapiens) (UniProt P10635); assay: Cytochrome P450 Family 2 Subfamily D Member 6 (CYP2D6) small molecule antagonists: luciferase reporter qHTS assay (AID 1671196); further: potency means the concentration at half of the fitted maximal effect; nearly all actives have a fitted effect of over 50% in size
# Method in brief: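 Room-temperature luminescent CYP2D6 activity assay: compound preincubated 10 min with enzyme–substrate mix, NADPH-initiated reaction 1 h, detection reagent 20 min before reading.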
# [14] = target: Glucocorticoid receptor (Homo sapiens) (UniProt P04150); assay: qHTS assay to identify small molecule antagonists of the glucocorticoid receptor (GR) signaling pathway (AID 720692; active means well fitted inhibition curve with a large enough effect in the signal ratio in the repeat runs, not every such curve was filed as active; inconclusive means weak or mixed curves, or effect the other way; inactive means no such curve, though single readings can be large or run the other way; the % refers to the signal ratio; further: potency means the concentration at half of the fitted maximal effect); details: GR-bla HeLa, beta-lactamase FRET ratio, dexamethasone-stimulated, 18 h; activity change, negative = inhibition: at 58.5 µM (top of the series) unless noted
# Method in brief: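 In a 1536-well cell format, compounds were added 4 h after seeding GR-bla HeLa cells, together with dexamethasone at 5 nM final; reporter activity was measured by FRET-substrate fluorescence following 18 h at 37 C.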
# [15] = qHTS assay to identify small molecule agonists of the estrogen receptor beta (ER-beta) signaling pathway - cell viability counter screen (AID 1259380); further: on the % scale 0 is the no-effect control and ±100 the full control effect; nearly all actives have a fitted effect of over 30% in size
# Method in brief: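 Compounds dissolved in DMSO were pin-transferred onto ER-beta-UAS-bla HEK293T cells that had settled 6 hr, and exposure ran 16 hr at 37C. Following the reporter read, CellTiter-Glo luminescence after 30 min at room temperature indicated cytotoxicity.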
# [16] = qHTS assay to identify small molecule agonists of the progesterone receptor (PR) signaling pathway - cell viability counter screen (AID 1346799; calls by dose curve; further: nearly all actives have a fitted effect of over 45% in size; further: potency means the concentration at half of the fitted maximal effect)
# Method in brief: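 Multiplexed viability read: CellTiter-Glo luminescence, 30 min RT, following LiveBLAzer FRET measurement on PR-UAS-bla HEK293T cells exposed to compounds 16 hr.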
# [17] = qHTS assay for identifying genotoxic compounds that show differential cytotoxicity against isogenic chicken DT40 cell lines with known DNA damage response pathways - wild type cell line (AID 743012); details: DT40 wild type chicken cells viability, CellTiter-Glo, 40 h; activity change, negative = cytotoxicity: at 68.4 µM (top of the series) unless noted; further: on the % scale 0 is the no-effect control and ±100 the full control effect; nearly all actives have a fitted effect of over 60% in size
# Method in brief: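 Viability of DNA repair-proficient chicken DT40 cells was assessed by CellTiter-Glo luminescence following 40 h compound exposure at 37 C/5% CO2.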
# [18] = qHTS assay for small molecule disruptors of the mitochondrial membrane potential (AID 720635); details: HepG2 mitochondrial membrane potential, Mito-MPS dye ratio; ratio activity, negative = MMP loss: at 83.2 µM (top of the series) unless noted; further: potency means the concentration at half of the fitted maximal effect
# Method in brief: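 Mitochondrial membrane potential tracked with Mito-MPS dye, red aggregates (ex 540/em 590 nm) against green monomers (ex 490/em 535 nm). Compound treatment 1 hr at 37C, dye 30 min in HepG2.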
# [19] = qHTS assay to identify small molecule antagonists of the peroxisome proliferator-activated receptor delta (PPARd) signaling pathway - cell viability counter screen (AID 743213); details: PPARd-bla HEK293H viability, CellTiter-Glo luminescence, 17 h; viability change, negative = cytotoxic: at 62 µM (top of the series) unless noted
# Method in brief: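 HEK293H PPARd UAS-bla cells, 5 h pre-incubation, compound + L165041 300 nM final, 17 h 37 C; B/G FRET substrate 2 h RT; then CellTiter-Glo 30 min RT, luminescence.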
# [20] = activity change, negative = inhibition: at 61 µM (top of the series) unless noted
# Tags describe the fitted curve by direction and shape or compound fluorescence and quenching.
# Chain of UniProt P37231 (P37231 whole entry, looked up): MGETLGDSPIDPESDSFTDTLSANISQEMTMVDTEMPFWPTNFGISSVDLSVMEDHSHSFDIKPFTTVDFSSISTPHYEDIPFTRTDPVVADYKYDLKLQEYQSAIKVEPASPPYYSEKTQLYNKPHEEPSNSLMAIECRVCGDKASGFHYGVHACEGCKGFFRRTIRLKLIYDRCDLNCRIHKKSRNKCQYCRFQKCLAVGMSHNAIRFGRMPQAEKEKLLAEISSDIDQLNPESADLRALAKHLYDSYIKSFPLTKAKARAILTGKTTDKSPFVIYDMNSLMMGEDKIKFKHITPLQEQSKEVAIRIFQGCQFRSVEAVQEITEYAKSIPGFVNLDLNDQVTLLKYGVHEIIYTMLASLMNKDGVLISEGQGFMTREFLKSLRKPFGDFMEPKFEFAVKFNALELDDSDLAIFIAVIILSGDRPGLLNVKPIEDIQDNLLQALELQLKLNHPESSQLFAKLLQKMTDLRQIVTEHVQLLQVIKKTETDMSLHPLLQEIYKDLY
# Chain of UniProt P04150 (P04150 whole entry, looked up): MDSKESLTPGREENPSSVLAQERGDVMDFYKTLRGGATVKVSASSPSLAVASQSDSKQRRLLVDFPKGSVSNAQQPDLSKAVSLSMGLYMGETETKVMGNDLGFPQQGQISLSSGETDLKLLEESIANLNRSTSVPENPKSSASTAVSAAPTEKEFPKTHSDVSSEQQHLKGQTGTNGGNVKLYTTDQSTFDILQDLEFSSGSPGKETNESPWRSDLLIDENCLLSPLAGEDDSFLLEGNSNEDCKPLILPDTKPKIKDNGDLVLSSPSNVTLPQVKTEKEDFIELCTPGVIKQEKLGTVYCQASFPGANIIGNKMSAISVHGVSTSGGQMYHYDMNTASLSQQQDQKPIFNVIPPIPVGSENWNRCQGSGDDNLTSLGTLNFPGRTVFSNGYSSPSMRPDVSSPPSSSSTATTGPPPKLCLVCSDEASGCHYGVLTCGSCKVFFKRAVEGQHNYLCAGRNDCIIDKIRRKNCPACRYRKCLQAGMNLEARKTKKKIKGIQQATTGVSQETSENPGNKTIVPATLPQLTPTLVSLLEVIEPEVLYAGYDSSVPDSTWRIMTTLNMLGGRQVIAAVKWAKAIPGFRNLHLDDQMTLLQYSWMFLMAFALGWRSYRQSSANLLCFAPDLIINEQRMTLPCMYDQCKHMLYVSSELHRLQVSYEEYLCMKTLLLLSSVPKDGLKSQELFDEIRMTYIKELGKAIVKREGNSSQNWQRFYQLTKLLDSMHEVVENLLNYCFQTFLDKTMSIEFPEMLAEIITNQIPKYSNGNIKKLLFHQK
# Chain of UniProt P06401 (P06401 whole entry, looked up): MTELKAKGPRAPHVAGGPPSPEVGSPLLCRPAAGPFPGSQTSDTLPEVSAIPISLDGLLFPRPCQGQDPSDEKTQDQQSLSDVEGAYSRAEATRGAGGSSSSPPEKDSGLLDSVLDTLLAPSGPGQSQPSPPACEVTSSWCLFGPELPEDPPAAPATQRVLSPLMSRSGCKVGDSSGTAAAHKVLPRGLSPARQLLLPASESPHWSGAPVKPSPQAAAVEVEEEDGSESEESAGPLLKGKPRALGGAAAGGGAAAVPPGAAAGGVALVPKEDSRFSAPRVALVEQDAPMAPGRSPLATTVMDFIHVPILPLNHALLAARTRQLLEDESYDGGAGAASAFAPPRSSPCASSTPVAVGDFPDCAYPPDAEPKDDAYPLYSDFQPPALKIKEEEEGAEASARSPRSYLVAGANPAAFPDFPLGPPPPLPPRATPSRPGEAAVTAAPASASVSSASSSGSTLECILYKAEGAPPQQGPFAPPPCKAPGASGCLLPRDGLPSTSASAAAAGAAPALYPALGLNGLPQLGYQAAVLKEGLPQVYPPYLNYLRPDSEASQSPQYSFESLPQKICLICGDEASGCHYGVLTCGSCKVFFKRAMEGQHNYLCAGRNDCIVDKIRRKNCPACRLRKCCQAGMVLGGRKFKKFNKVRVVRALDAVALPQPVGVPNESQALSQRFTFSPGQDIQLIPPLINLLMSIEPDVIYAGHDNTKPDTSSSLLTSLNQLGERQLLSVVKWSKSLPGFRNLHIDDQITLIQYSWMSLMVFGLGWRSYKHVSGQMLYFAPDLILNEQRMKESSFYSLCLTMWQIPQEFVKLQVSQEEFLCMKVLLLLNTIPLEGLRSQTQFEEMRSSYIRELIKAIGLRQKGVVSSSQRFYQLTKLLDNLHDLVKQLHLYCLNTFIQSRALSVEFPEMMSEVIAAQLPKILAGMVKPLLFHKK
# Chain of UniProt P11473 (P11473 whole entry, looked up): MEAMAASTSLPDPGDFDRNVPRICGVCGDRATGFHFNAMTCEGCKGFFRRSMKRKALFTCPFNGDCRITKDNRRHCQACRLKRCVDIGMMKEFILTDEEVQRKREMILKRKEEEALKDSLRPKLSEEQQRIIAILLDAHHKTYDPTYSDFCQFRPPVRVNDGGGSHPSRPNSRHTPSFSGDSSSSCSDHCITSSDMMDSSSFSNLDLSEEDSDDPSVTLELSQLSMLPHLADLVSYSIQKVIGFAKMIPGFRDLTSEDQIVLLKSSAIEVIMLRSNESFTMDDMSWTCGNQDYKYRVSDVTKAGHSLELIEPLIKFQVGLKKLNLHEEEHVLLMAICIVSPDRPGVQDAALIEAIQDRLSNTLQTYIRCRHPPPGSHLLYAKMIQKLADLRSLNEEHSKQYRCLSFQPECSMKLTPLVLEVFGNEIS
# Chain of UniProt P05177 (P05177 whole entry, looked up): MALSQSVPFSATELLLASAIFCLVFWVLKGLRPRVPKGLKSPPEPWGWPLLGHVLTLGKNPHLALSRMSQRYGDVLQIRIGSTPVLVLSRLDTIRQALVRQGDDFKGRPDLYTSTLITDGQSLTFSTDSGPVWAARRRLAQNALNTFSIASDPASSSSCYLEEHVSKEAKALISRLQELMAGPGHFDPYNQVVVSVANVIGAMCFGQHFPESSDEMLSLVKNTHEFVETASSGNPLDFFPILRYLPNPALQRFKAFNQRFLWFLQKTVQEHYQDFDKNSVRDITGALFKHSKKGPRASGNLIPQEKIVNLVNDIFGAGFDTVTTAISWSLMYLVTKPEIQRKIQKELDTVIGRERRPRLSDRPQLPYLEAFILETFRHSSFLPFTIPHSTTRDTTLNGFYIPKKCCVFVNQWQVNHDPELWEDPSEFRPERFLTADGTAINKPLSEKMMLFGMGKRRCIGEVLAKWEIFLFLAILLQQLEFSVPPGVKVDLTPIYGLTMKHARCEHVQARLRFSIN
# Chain of UniProt P10635 (P10635 whole entry, looked up): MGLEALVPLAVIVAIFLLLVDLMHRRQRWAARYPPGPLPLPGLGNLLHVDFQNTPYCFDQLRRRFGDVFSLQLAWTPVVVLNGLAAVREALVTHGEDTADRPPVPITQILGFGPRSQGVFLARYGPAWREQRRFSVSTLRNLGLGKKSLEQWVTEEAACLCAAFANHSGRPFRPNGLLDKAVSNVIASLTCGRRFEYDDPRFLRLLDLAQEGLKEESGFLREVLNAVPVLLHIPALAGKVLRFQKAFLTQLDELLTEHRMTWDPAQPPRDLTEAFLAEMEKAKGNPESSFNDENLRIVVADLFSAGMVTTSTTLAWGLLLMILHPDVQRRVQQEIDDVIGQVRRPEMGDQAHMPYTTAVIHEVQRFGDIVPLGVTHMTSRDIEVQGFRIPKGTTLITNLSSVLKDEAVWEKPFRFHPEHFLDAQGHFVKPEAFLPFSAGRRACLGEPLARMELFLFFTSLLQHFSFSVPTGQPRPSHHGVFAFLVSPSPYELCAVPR
# Chain of UniProt Q92731 (Q92731 whole entry, looked up): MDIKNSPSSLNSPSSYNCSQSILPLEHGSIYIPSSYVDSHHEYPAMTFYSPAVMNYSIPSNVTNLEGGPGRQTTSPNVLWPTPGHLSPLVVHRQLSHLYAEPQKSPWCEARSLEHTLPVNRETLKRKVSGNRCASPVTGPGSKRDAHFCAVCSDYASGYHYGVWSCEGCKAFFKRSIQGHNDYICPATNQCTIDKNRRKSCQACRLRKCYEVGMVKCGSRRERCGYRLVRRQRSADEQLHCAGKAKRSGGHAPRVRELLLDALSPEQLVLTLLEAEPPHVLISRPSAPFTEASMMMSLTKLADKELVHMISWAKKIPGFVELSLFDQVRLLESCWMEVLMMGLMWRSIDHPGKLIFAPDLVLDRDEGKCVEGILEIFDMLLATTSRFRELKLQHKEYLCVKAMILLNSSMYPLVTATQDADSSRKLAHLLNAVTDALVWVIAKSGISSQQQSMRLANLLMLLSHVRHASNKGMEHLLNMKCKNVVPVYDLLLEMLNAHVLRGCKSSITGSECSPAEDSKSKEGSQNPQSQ
# Chain of UniProt P11712 (P11712 whole entry, looked up): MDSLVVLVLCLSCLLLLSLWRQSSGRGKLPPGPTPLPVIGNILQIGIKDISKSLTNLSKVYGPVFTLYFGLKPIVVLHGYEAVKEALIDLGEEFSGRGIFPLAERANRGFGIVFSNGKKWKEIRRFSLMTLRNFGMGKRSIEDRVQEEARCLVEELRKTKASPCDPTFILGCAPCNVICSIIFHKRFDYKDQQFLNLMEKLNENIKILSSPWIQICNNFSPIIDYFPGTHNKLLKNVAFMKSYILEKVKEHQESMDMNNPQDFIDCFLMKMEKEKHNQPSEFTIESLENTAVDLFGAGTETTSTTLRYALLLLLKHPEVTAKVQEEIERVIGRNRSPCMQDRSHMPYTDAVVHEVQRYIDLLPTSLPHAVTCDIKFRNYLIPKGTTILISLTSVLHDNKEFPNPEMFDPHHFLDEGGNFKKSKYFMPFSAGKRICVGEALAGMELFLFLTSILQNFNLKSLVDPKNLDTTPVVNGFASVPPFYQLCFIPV
structure (smiles),measurement,setting,value
CCCO[Si](OCCC)(OCCC)OCCC,Potency,[1],"inconclusive: 17.2 µM [cytotoxic, partial curve, poor fit]"
same,Potency,[2],inactive
same,"ratio activity, negative = inhibition",[3],inconclusive: -13.8%
same,Potency,[4],"inconclusive: 2.84 µM [cytotoxic, single point]"
same,Potency,[5],inactive
same,Potency,[6],"inconclusive: 35.6 µM [inhibitor, partial curve]"
O=[N+]([O-])c1ccccc1C(F)(F)F,Potency,[7],inactive
same,Potency,[1],"inconclusive: 75.3 µM [rising, partial curve, poor fit]"
same,Potency,[3],inactive
same,activation,[8],inconclusive: -15.7%
same,"activity change, negative = inhibition",[9]; [20],inconclusive: 14.8%
same,"activity change, negative = inhibition",[9]; at 61 µM (top of the series),inactive: -6.17%
same,"activity, negative = inhibition",[10],inconclusive: -33.2%
same,Potency,[11],inactive
same,Potency,[12],"inconclusive: 43.8 µM [inhibitor, partial curve, poor fit]"
same,Potency,[6],"inconclusive: 34.8 µM [inhibitor, partial curve]"
CCN(CC)C(=O)C1CN2CCc3cc(OC)c(OC)cc3C2CC1OC(C)=O (centres undefined),"ratio activity, negative = inhibition",[3],inconclusive: 0.351%
same,Potency,[4],inactive
same,Potency,[13],"inconclusive: 8.71 µM [inhibitor, full curve]"
same,Potency,[12],inactive
same,Potency,[6],inactive
CCn1cc(C(=O)O)c(=O)c2cc(F)c(N3CCN(C)CC3)cc21,Potency,[7],inactive
same,"activity change, negative = inhibition",[14],inconclusive: 0.786%
same,Potency,[8],inactive
same,"activity change, negative = cytotoxicity",[4],inactive: -2.01% [at 31.6 µM]
same,"activity change, negative = cytotoxicity",[15],inactive: 5.67% [at 19 µM]
same,"activity change, negative = inhibition",[11],inconclusive: 1.55% [at 18.9 µM]
same,"activity change, negative = cytotoxicity",[16],inactive: -1.41% [at 19 µM]
CC(=O)Nc1ccc(OCCOCCOc2ccc(NC(C)=O)cc2)cc1,"activity change, negative = inhibition",[14],inconclusive: 6.22%
same,Potency,[1],inactive
same,Potency,[3],inactive
same,Potency,[4],inactive
same,Potency,[15],inactive
same,Potency,[13],"inconclusive: 38.9 µM [inhibitor, partial curve, poor fit]"
C=C(C)C(=O)OCCCCCCCC(C)C,Potency,[14],"inconclusive: 62.1 µM [activator, single point]"
same,"ratio activity, negative = inhibition",[3],inconclusive: 1.83% [at 81.1 µM]
same,Potency,[9]; [20],inactive
same,Potency,[5],"inconclusive: 0.346 µM [inhibitor, full curve]"
same,Potency,[6],"inconclusive: 40.2 µM [inhibitor, partial curve]"
CCC(=O)CC,Potency,[14],inactive
same,Potency,[17],inactive
same,Potency,[15],inactive
same,Potency,[6],inconclusive: 39.9 µM [inhibitor]
COc1nc(N)nc2c1ncn2[C@@H]1O[C@H](CO)[C@@H](O)[C@@H]1O,Potency,[18],"inconclusive: 6.99 µM [rising, single point]"
same,Potency,[2],"inconclusive: 29.8 µM [cytotoxic, partial curve]"
same,Potency,[19],"inconclusive: 0.596 µM [cytotoxic, single point]"
same,Potency,[9]; [20],inactive
same,Potency,[10],inactive
same,Potency,[16],"inconclusive: 2.66 µM [rising, full curve]"
